# Screen size: about 310,000 compounds; about 2,200 (0.71%) showed an effect of 50% or more. Effects have a minus sign here. The list shows a part of the results.
# Target: human ether-à-go-go-related gene (hERG) potassium channel (human, UniProt Q12809)
# Assay: primary screen, population patch clamp on CHO cells stably expressing hERG
# human ether-à-go-go-related gene (hERG) potassium channel, sequence (Q12809 whole entry, looked up): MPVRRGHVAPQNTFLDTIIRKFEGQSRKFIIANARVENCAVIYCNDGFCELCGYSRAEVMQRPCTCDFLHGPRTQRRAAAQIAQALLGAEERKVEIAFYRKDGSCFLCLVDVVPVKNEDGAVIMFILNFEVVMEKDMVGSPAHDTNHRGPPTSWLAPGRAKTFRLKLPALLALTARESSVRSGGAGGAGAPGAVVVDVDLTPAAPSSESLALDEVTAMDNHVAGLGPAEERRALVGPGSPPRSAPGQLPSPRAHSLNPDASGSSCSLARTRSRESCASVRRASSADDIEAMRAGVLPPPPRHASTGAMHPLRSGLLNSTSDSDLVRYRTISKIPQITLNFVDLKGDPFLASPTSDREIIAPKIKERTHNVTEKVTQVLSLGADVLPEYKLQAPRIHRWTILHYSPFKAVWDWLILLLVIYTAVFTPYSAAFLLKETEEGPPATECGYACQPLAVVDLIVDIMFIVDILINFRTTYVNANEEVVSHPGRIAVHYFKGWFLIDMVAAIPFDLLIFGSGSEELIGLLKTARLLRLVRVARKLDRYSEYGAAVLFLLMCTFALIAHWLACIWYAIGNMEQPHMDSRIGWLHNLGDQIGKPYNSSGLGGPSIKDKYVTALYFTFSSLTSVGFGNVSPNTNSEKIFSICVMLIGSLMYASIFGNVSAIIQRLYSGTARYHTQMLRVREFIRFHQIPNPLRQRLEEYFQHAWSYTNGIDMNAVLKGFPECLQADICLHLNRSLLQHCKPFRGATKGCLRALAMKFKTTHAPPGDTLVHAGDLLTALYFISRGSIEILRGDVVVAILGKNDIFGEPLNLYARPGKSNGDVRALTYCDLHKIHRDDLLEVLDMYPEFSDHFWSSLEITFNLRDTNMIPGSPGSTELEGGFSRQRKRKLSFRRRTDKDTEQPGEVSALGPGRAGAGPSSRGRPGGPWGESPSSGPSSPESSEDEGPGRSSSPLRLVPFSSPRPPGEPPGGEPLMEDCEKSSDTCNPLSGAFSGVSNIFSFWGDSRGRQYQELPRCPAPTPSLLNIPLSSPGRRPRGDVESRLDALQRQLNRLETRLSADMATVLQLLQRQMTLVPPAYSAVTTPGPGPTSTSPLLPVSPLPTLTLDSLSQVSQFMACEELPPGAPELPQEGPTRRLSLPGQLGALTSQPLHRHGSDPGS
row,SMILES,"hERG current change (%, negative = inhibition) at 1uM"
1,COc1nc2ccccc2nc1N1CCN(C)CC1,9.95%
2,CC(=O)C[C@H]1c2cc(C(F)(F)F)ccc2S(=O)(=O)N1c1ccccc1,7.9%
3,CCCCNC(=O)C1(c2ccc(OC)cc2)CCOCC1,15.2%
4,Cc1cc2nc(CS)[nH]c2cc1C,8.24%
5,COn1c(C)c(C(C)=O)c2c3no[n+]([O-])c3ccc21,13.3%
6,COc1cccc(C2=NN(C(=O)c3cccs3)C(O)(C(F)(F)F)C2)c1 (centres unmarked),3.27%
7,CC(=O)c1cccc(NCC(=O)Nc2cccc(S(=O)(=O)N3CCCCC3)c2)c1,-6.63%
8,COCCN(C(=O)CSc1nc2ccccc2c(=O)n1CCOC)c1c(N)n(Cc2ccccc2)c(=O)[nH]c1=O,12.6%
9,CCn1cc(S(=O)(=O)CC(=O)Nc2ccc(C)cc2)c2ccccc21,16.4%
10,CCN1CCN(c2nc3c(c(=O)[nH]c(=O)n3C)n2CCCc2ccccc2)CC1,-81.5%
11,COc1cc(C=O)ccc1OCCCCOc1ccccc1[N+](=O)[O-],8.61%
12,CCN(C(=S)NCc1ccccc1)c1cccc2ccccc12,11.3%
13,C#CC(=O)N(c1ccc(OC)c(OC)c1)C(C(=O)NC1CCCC1)c1cccs1.Cl (centres unmarked),7.21%
14,Cc1ccccc1COC(=O)CCC1=NS(=O)(=O)c2ccccc2N1,11.8%
15,COc1cc(/C=C/C(=O)OCC(=O)Nc2nnc(-c3ccccc3)o2)cc(OC)c1OC,1.2%
16,O=C(COc1ccc(-n2cnnn2)cc1)Nc1ccccc1Cl,19%
17,CCC1(CC)NC(=O)N(CC(=O)OCC(=O)c2ccccc2OC)C1=O,4.8%
18,Cc1cccc(N2CCN(C(=O)NC3CCCCC3)CC2C)c1 (centres unmarked),13.1%
19,COc1ccc(/C=N/NC(=O)CSCC(=O)Nc2ccccc2)cc1,12.3%

row,SMILES,"hERG current change (%, negative = inhibition) at 1uM"
1,CCOc1ccccc1NC(=O)C(c1ccccc1)N1CCN(CC(=O)N2CCOCC2)CC1 (centres unmarked),-79.7%
2,Cc1ccc(S(=O)(=O)N2CCOCC2)cc1NC(=O)COC(=O)CNC(=O)c1ccc(Oc2ccccc2)cc1,6.43%
3,COCCN1C(=O)c2oc3ccccc3c(=O)c2C1c1ccc(O)c(OC)c1 (centres unmarked),3.25%
4,O=C(Nc1ccc(F)cc1)C1CCN(C(=O)c2ccc(F)cc2)CC1,-20.8%
5,Cn1cnnc1SCC(=O)NC1CCCCC1,2.66%
6,CCN(CCO)c1ccc(NC(=S)Nc2cccc(S(=O)(=O)N(C)C)c2)cc1,10.4%
7,Cc1ccc(S(=O)(=O)N(CC(=O)N2CCOCC2)CC(=O)N2CCOCC2)cc1,8.74%
8,CCOC(=O)c1ccc(NC(=O)NCCc2cnc[nH]2)cc1,10.2%
9,CC1(C)CC(=O)C=C(Nc2cccc(Cl)c2Cl)C1,-0.621%
10,CC(=O)N/N=C(\N)c1nonc1N,13.9%
11,COC(=O)C1=COC(OC2OC(CO)C(O)C(O)C2O)C2C1C=CC2(O)CO (centres unmarked),5.93%
12,O=C(O)COCC(=O)N1CCCN(c2nccc(C(F)(F)F)n2)CC1,17.7%
13,Cc1[nH]n(-c2ccc(Cl)cc2)c(=O)c1C=Nc1ccc(S(=O)(=O)N2CCOCC2)cc1,5.73%
14,CCOC(=O)c1cnn(-c2nc(SC)nc3sc4c(c23)CCCC4)c1N,9.29%
15,COc1ccccc1N1CCN(C(=O)c2c(-c3ccccc3Cl)noc2C)CC1,-9.28%
16,Cc1cccc(N=C2NC(=O)/C(=C/c3cccnc3)S2)c1,10.4%
17,Cc1ccc(S(=O)(=O)N2CCC[C@H]2C(=O)OC(C)C(=O)Nc2ncc(Cl)cc2Cl)cc1 (some centres unmarked),-1.56%
18,COc1ccc(OC)c(-c2[nH]nc3c2C(c2ccco2)C(C#N)=C(N)O3)c1 (centres unmarked),1.42%
19,Cc1ccc(CNC(=O)CCn2nc(-c3ccc(Cl)cc3)ccc2=O)cc1,-3.01%

row,SMILES,"hERG current change (%, negative = inhibition) at 1uM"
1,COCCN1Cc2cccc(C(=O)NCC3CCN(CC(C)C)C3)c2C1=O (centres unmarked),-2.8%
2,COCCN=C1N[C@@H](c2cccc(C(F)(F)F)c2)C(C(=O)OC)=C(C)N1Cc1ccccc1,8.73%
3,CC(=O)Nc1ccc(Nc2cc(C)nc3c(-c4ccccc4)c(C)nn23)cc1,12.8%
4,CCOC(=O)C1CCN(S(=O)(=O)CCNC(=O)c2cccc(OC)c2)CC1,1.22%
5,Cn1cnnc1SCC(=O)NNC(=O)COc1ccc(Cl)cc1,13.6%
6,CC(=O)NC(c1cccc([N+](=O)[O-])c1)c1ccc2cccnc2c1O (centres unmarked),10.9%
7,Br.Cc1c(Nc2scc(-c3ccccc3)[n+]2-c2ccccc2)c(=O)n(-c2ccccc2)n1C,2.02%
8,Cc1c(NC(=O)COC(=O)c2ccc(S(=O)(=O)N3CCOCC3)cc2)c(=O)n(-c2ccccc2)n1C,16.5%
9,COCc1cc(=O)[nH]c(SCC(=O)c2ccccc2)n1,4.78%
10,CCOc1cc(/C=N/NC(N)=O)cc(Br)c1OCc1ccccc1F,16.1%
11,Cc1ccc(S(=O)(=O)CCN2CCC(O)(c3ccccc3)CC2)cc1,10.7%
12,COc1ccc(N(CC(C)C)S(=O)(=O)c2nnc(NC(=O)c3ccco3)s2)cc1,21.4%
13,CCc1nc(SCC(=O)N2c3ccccc3Sc3ccccc32)c2ccccc2n1,4.74%
14,O=[N+]([O-])c1ccc(N2CCCC2)c2ncccc12,2.1%
15,COc1cc(CNc2ccc3c(c2)OCCO3)ccc1OCC(N)=O,2.79%
16,COc1ccc2c(CCNC(N)=S)c[nH]c2c1,7.26%
17,CCOC(=O)C1CCN(C(=O)C(CC)c2ccccc2)CC1 (centres unmarked),-0.495%
18,COc1ccc(NC(=S)NC(C)c2ccncc2)cc1OC (centres unmarked),3.49%

# — PMC4336329 (PLoS ONE, 2015)
